Laboratory results: paper doi:10.1101/2020.01.04.893156 (bioRxiv, 2020)

Target: T1, phosphorylated Ric-8A(1-491) (rat, UniProt Q80ZG1 1-491, phosphoserine at 435, phosphothreonine at 440 (casein kinase II))
T1 sequence (looked up): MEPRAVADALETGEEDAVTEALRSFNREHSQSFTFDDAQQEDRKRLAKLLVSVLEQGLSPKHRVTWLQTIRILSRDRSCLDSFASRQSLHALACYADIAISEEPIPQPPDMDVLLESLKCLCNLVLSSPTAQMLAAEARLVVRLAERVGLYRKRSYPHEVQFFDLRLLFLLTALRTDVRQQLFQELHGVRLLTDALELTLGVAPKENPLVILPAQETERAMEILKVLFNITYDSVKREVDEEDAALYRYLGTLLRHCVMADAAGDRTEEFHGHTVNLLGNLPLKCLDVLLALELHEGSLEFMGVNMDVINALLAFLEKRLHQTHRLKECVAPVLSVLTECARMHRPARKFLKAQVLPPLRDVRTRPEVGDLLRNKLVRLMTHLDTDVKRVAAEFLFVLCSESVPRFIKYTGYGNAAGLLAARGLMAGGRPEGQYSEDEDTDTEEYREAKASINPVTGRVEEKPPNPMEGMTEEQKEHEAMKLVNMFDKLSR
Experiment: cryo-EM structure

binding result: binds
B1: Δ31NGαi1 (N-terminal 31-residue truncation mutant of rat Gαi1) (domain or fragment)
chain: not shown
